# Results: the supplement of paper PMC3334620
# The full ranking holds about 33,000 sequences; the median of “E-score (-0.5 to 0.5)” is about -0.054, and the highest 2% start at about 0.39. Some of the results follow.
# Biological target: Ylr278c (UniProt Q05854)
# Test: PBM E-score (8-mer binding enrichment) (E-score (-0.5 to 0.5)); higher = stronger / more preferred TF binding; most listed sequences are background and not binding sites
# Settings: protein concentration: 200 nM; construct: GST-DNA-binding domain
# How it was run: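 Masliner-normalised scans of fluorescent anti-GST signal were the basis for scoring. That signal came from GST-tagged yeast transcription factors applied at about 100-200 nM to double-stranded universal all-10-mer Agilent arrays on fresh or once-stripped slides. Each ungapped eight-base word, pooled with its reverse complement, received an E-score from the Universal PBM Analysis Suite.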
row,Sequence,PBM E-score
1,CTGTATCA,-0.256
2,GAAGAATC,0.222
3,CACTCTGA,-0.0892
4,CAGTTCGA,-0.16
5,ATTGTTGG,0.0754
6,AGTGGGAA,0.0353
7,GACTACCA,-0.055
8,CCGGGTAA,0.341
9,GAGGCTGC,-0.169
10,CGAGCCCC,0.096
11,AGCACTAG,-0.192
12,GTTCATCA,-0.0953
13,CTGATATA,-0.141
14,GCAGATAC,-0.0211
15,CTGCGAAA,-0.0633
16,CGATCACC,0.102
17,ACGACTCT,-0.237
18,AGCTGACT,-0.102
19,CTGTAGTA,-0.0617
20,CATCTGGA,0.0399
21,CCGGCGTA,0.387
22,GATTTTTA,0.13
23,CCTTCGAG,-0.0791
24,AACGTGCA,-0.155
25,GATAGCCC,-0.034

row,Sequence,PBM E-score
1,AACGTGGG,-0.154
2,CCTCTCGA,-0.193
3,ATGCTCTG,-0.211
4,AGCATCCG,0.164
5,CAATGTTC,-0.0551
6,GGATTGTA,0.0466
7,ACGGCGCC,0.184
8,CAACCCTG,-0.0969
9,ACCTACGT,-0.063
10,GGGACTTA,-0.0692
11,CTACGAAG,-0.367
12,ATCGCACA,-0.213
13,GCGCATGA,-0.13
14,CATGCACA,-0.24
15,ACCCTATC,-0.0194
16,TCTGAGCA,-0.261
17,GAGACGTA,-0.0949
18,ATTTGGAG,-0.144
19,ACATTAAA,-0.0965
20,CCTGTATA,-0.112
21,CGTACTCC,0.285
22,CCTATTTC,0.036
23,ACCGATCG,0.26
24,AGTCATAT,-0.0638
25,CGACAGGA,0.144

row,Sequence,PBM E-score
1,AAGCTTAG,-0.033
2,ACACTACC,-0.0351
3,TACCTCCA,-0.221
4,AGTGCTAA,0.0605
5,GTCAGCCA,-0.195
6,AGGGATTG,-0.134
7,GCGCGGTA,0.227
8,ATATAGGC,0.0793
9,ACCGAAAA,0.0832
10,CAACAAGC,-0.0654
11,AACCTTAA,0.0629
12,GGGTGCTA,-0.0146
13,GGGGCTAA,-0.0146
14,TGATTTAA,0.118
15,AAAGTCTC,-0.222
16,GCAATTGC,-0.0388
17,ACAGCGAG,-0.095
18,CCACGTGA,-0.198
19,CGTTAGAA,-0.0373
20,ACTTCCTA,-0.0284
21,ACACTAAA,-0.0562
22,AGCGCGTC,-0.0272
23,GCAGCACC,-0.0639
24,CCATGTCC,0.123
25,CTGGGTCC,0.0219

row,Sequence,PBM E-score
1,AATGTCGT,-0.163
2,GGCCGCAA,0.0796
3,CGAACGTA,-0.156
4,ACGGACCC,0.187
5,AGAGACAC,-0.152
6,ACGTAAAT,0.0497
7,GCGAACCC,0.208
8,AGAAAACT,-0.187
9,AGCCCGGA,0.448
10,CATATTGA,-0.25
11,CAAACGCA,-0.214
12,CATTGGAG,0.0128
13,CGGTGCTA,0.214
14,CATCTAAC,-0.0951
15,AATGACTC,-0.162
16,GTAACTAA,0.0279
17,CGGGTGCA,0.12
18,CAGTGGGC,-0.12
19,CAATGGCC,0.0331
20,GACATCAC,-0.0122
21,CCCCTGCA,-0.174
22,ATACATTC,-0.165
23,CTAGGCAA,-0.0858
24,GACTTGCC,-0.0798
25,AATGACAG,-0.308

row,Sequence,PBM E-score
1,ACAAGAGA,-0.0766
2,CTCTGTCC,-0.0172
3,CATCACGA,-0.293
4,ACATGAGT,-0.283
5,ACTTGAGC,-0.334
6,GATTTTAC,0.106
7,AATTCCTC,0.0437
8,CCTATATC,-0.0734
9,GTCGTGGA,-0.0646
10,ACAAGACC,-0.0484
11,AAGTAGAA,-0.0972
12,ACCAGGAG,-0.0703
13,CGAAATAG,0.0414
14,CTCGAAGC,-0.108
15,TCTGCGCA,-0.0591
16,CTCATAAG,-0.079
17,AGAGGTAC,-0.19
18,GGAACGAC,-0.0666
19,GACGAAGC,-0.00284
20,CATCCCCC,-0.0212
21,CGTCCGAC,0.243
22,ATATAGTA,-0.0693
23,GCCGCGAA,0.233
24,CTAATAGA,-0.0917
25,CTTCCATC,-0.0372

row,Sequence,PBM E-score
1,GATCTTGC,0.151
2,CGACCAGA,-0.0929
3,ATCAGTTG,-0.277
4,ATCGCACG,-0.197
5,GAGCGATC,0.148
6,TCGGCAAA,0.233
7,AAGCGCGA,0.0564
8,GACATAGC,-0.0226
9,ATCGGGGC,0.296
10,ACCAAGGA,-0.0602
11,AATAGACT,-0.178
12,ACTCTCCC,0.14
13,ATAACCCC,0.2
14,CAGTACTA,-0.253
15,CCGTGTAC,0.121
16,AGACGGGG,0.209
17,CTGAATAA,-0.137
18,TAATTATA,0.112
19,GGCGAAGA,0.136
20,CGCACTAC,0.104
21,CCAGCTTC,-0.0973
22,CCCCTACG,-0.176
23,CACGGTAG,-0.139
24,ACCACTTG,-0.0509
25,CAAGGATA,-0.11

row,Sequence,PBM E-score
1,GTCGTTAA,-0.0218
2,CCCAAAAC,-0.216
3,AGCCCCTC,-0.142
4,CATTATGA,-0.189
5,CACTAGTG,-0.0271
6,GACGGATA,0.249
7,ATCGCTTA,-0.276
8,CGGGGGAG,0.158
9,TGCACTAA,-0.0823
10,AGCACATC,0.0993
11,AGATTCGG,0.288
12,GAGTATGA,0.24
13,ACTATTGA,-0.15
14,TCCGATAA,0.428
15,AGTGGATA,-0.00948
16,CTGGCTAC,-0.258
17,CGGGCTGC,0.118
18,GATTTATA,0.0736
19,AACCCTGC,-0.198
20,ACAATCCT,-0.0827
21,CACATATG,-0.38
22,ATGTGTCA,-0.205
